These results are taken from the supplement of paper PMC10681739.

± gives the standard deviation of the averaged measurements. In all, about 4,100 sequences were measured (“arbitrary fluorescence units”: median about 780, highest 2% from about 22,000 on). The list shows a part of the results.

The target in the assay is T1, ETS1 (UniProt P14921).
T1 sequence: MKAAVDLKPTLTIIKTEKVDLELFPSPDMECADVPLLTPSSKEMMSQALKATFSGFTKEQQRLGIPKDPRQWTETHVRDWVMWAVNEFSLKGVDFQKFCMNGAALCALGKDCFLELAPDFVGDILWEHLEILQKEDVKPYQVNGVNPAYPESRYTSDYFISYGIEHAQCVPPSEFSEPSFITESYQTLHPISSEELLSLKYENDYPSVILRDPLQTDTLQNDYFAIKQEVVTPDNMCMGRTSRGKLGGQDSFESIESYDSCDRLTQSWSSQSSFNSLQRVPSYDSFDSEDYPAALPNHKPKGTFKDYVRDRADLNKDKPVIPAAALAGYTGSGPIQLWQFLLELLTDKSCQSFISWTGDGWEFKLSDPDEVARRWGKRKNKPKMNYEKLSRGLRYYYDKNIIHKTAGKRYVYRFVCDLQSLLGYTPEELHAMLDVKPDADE
As to the kind of experiment: ETS1 binding intensity (PBM fluorescence), ETS1 alone (arbitrary fluorescence units); higher = stronger binding. To be noted: ETS1 concentration 1 nM; RUNX1 concentration 0 nM. The protocol: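 gcPBM on 36-bp genomic-derived probes (partner site mutated) containing one ETS1 site and no RUNX1 site. Recombinant human ETS1 (1 nM) was incubated alone or with RUNX1 (25 nM) and detected by anti-ETS1 antibody fluorescence. Values are medians over 4 replicate spots (not normalised). The probes sit in constant array flanks that are not printed.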
The sequence CCGCCCTGTAGTTTTGGAGCCCTTCCTCCCGGCGCA came in with an ETS1 binding intensity of 432.
AGCACCCCAGGAAACCATCGCCTCAGCCCTCATATT gave an ETS1 binding intensity of 557.
With TAGGACAGCGGATTTTCAGTCCGGAGATTCCGGCCA, the ETS1 binding intensity turned out to be 368.
Turning to GGTGAAATTAACGACAGAAATAATGGGAAGTAGAGA, the ETS1 binding intensity is 430.
For the sequence AGCAAATCCAAAAAAAAAAAAAAAAAGAGGAAATAA, the ETS1 binding intensity amounted to 476.
The result for TGGTCGCCGTTTGGAACTGCGCGGGAAGTGGGTGGT reads 327.
The result for CTTGACTTAACTACAAGACAGGATGGGTTGATGAAG reads 426; that for GTTGTCCGTGAGCACCAGCCCCAAAGGAAATGCCCT, 483; that for AAAACCCAAGCCACCCCTCAGGAAGCGTTAAGCAAG, 344.
With CAGGCTGCTTCCGGCGCGCGGCAGAGCGGCCAGAGC, the ETS1 binding intensity was 17900.
As to CGCCTTCCGCCATCTTCTTCCACTAACGGTAGGGGA, the ETS1 binding intensity is 3980.
The sequence AGCCGCTAAAGACCACCGCTTCCGGCCTCTGCTTAG displayed an ETS1 binding intensity of 13000.
The result for AGCTCATCCTGAGGCTGCCCACACGGCTGTAGGTCC reads 762; that for AGTTCTGGGCTCACCTGGAGGAGTTTCCTGGAGTGG, 398; that for CTCAAGAGCGCTTACGGGAGCCTCTCGGCTTCCGTC, 358.
As for TAATTTTTTTTAAGCACTTCCAGGATATCTTGCCCA, the ETS1 binding intensity was found to be 570.
TGAGTCACATCCTGCAGGGCTTCGGTATCCTGGCTT registered an ETS1 binding intensity of 6840.
CCTTGGGCTTTGGGGTCTCCCACATCCGGCCTGCCC had an ETS1 binding intensity of 5460.
Turning to TCCTGTCCCACTGGGGTTCCTGGGATGTTTGTTGTT, the ETS1 binding intensity came to 400.
The result for TTTGCTATTCATGGTTCATTTCCTTTTCCTCCTTGT reads 1240.
On to TGCCGCGGATACCCAGCCAGCGGCAGTGCGCTTAAC, for which the ETS1 binding intensity was found to be 333.
Take TCAAAGACTCAGCGTTTACCCCCTTCCGGGCCGCGC: the ETS1 binding intensity amounted to 665.
Regarding CTTCCCTTGCCCCGGAAAAGGGCGGCAAGAGGGAGC, the ETS1 binding intensity was found to be 611.
The result for TTCTGACTCACCTTCCTGTAGGTTGGATTTCTGCAT reads 1090; that for ACTAGATTAATCACATCCACTTCCGGTGGGGCTGGA, 15900.
GGCGCGGGCGCTGTCCGCCCTCTCTTCCGGAGGGCG: the ETS1 binding intensity was determined as 653 ± 10.
Sequence TGGGCATTGCCGCTTTCCAGCGGAAGGGGGCATCTT had an ETS1 binding intensity of 628.
The result for GCACCGTACCCGGAACTGCTCCCTCCCGCTGGCGCA reads 580; that for CCGGAGGCCGTAGGCCGCTCAGGCTTCCGCTCCCAC, 711 ± 58; that for ACCAGAGAAGGAAATACACAGTAAACGCACTGCCTC, 596.
GGCGGAACTTGTGCGTACGCTGGAAATCCGCTGGGG registered an ETS1 binding intensity of 533.
The result for CCGCCCCCGGACGGTCACAGCACCCAAACAGCAGGC reads 455.
The result for GGCGCAAGTTTCGGAGTTTCTGTTTCCTTTTTCCTC reads 531.
The result for CTTTTTTGTGACTTACCAGAACCAATATCCGGCATT reads 1610.
In turn, TGTTTAGATGTGAGCACACCTGACATCCGCGGGCTC came in with an ETS1 binding intensity of 432.
